Measurements published in PubChem BioAssay AID1460 (National Center for Advancing Translational Sciences (NCATS), 2008).
Out of some 270,000 compounds screened, about 5,800 (2.1%) were called active. This list was built around the results that the source calls inconclusive (neither active nor inactive); the mix of calls is not that of the screen. The call rests on the fitted dose curve; in most records, active means well fitted inhibition curve with a large enough effect; inconclusive means small, poorly fitted or top-dose-only effect; inactive means flat fitted curve, though single readings scatter. Where the call is inconclusive, the potency comes from a doubtful curve fit.

The compounds below were run against Microtubule-associated protein tau (Homo sapiens) (UniProt P10636) (assay: qHTS for Inhibitors of Tau Fibril Formation, Thioflavin T Binding). Settings: recombinant tau K18 P301L (four-repeat tau fragment), heparin-induced fibrillization, ThT fluorescence; series mostly up to 57.4 µM.
UniProt P10636, sequence (P10636 whole entry, looked up, the tested form may be a part): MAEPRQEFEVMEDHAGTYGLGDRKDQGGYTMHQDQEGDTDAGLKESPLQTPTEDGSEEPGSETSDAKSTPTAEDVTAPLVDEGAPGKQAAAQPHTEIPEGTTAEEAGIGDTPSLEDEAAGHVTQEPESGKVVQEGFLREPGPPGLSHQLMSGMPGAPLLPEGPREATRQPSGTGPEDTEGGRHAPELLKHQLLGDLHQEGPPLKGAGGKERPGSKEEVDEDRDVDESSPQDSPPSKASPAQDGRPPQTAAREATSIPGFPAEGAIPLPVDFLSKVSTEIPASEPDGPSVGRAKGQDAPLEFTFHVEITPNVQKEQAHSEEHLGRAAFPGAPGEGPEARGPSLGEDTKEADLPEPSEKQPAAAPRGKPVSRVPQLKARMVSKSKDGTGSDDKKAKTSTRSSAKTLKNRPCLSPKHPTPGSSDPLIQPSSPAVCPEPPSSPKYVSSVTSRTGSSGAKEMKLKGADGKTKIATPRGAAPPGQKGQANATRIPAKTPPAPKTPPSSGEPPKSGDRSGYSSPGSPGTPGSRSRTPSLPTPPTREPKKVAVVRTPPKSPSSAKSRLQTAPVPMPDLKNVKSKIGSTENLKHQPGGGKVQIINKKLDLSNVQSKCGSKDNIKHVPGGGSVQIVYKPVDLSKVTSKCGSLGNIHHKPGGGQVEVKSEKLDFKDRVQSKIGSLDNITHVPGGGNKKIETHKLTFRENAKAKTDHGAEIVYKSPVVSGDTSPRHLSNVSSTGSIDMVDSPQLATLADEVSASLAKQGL
Source text: NIH Molecular Libraries Probe Production Network [MLPCN]
NIH Chemical Genomics Center [NCGC]
Assay Provider: Carlo Ballatore, University of Pennsylvania
The microtubule-associated protein tau is an abundant protein in the axons of neurons that stabilizes microtubules. With its ability to modulate microtubule dynamics, tau contributes directly or indirectly, to key structural and regulatory cellular functions. Particularly important is the influence tau exerts on axonal transport, which allows signaling molecules, trophic factors and other essential cellular constituents to travel along the axons. Under pathological conditions, tau becomes sequestered into insoluble aggregates called neurofibrillary tangles. This phenomenon is believed to have pathological consequences by promoting axonal transport deficits that ultimately lead to synaptic dysfunction and neuronal loss. To identify inhibitors of tau aggregation, a heparin-induced tau fibril formation assay was used that employed a recombinantly expressed fragment of tau, K18 (Q242-E372), bearing a P301L mutation (Gustke et al. 1994; Hong et al. 1998). This assay monitors tau fibrillization by Thioflavin T (ThT) fluorescence.
Gustke, N., B. Trinczek, et al. (1994). "Domains of tau protein and interactions with microtubules." Biochemistry 33(32): 9511-22.
Hong, M., V. Zhukareva, et al. (1998).
Li, W. and V. M. Lee (2006).
von Bergen, M., S. Barghorn, et al. (2001). "Mutations of tau protein in frontotemporal dementia promote aggregation of paired helical filaments by enhancing local beta-structure." J Biol Chem 276(51): 48165-74.
NCGC Assay Protocol Summary:
For screening, 2 uL/well human K18 P301L (15 uM unlabeled and 0.24 uM Alexa 594-labeled tau, final concentrations) in reagent buffer (100 mM sodium acetate pH 7) was dispensed into black solid 1536-well plates (Grenier) using a solenoid-based dispenser. Following transfer of 23 nL compound or DMSO vehicle by a pin tool, 2 uL/well heparin (20 uM final concentration) in reagent buffer was added and the plate centrifuged 15 s at 1000 RPM. Plates were incubated 6 hr at 37 C and then 1 uL/well ThT (30 uM final concentration) was added. After a 1 hr ambient incubation, the plates were read by an Envision (Perkin Elmer) to monitor ThT fluorescence (450/8 nm excitation and 510/23 nm emission).
Keywords: NIH Roadmap, MLPCN, MLI, MLSMR, NCGC, qHTS, tau, tauopathies, Alzheimer's disease, fibril, neurodegeneration, aggregation
Further: nearly all actives have a fitted effect of over 55% in size.
On the % scale 0 is the no-effect control and ±100 the full control effect; potency means the concentration at half of the fitted maximal effect; tags describe the fitted curve by direction and shape.

SMILES	Potency	activity, negative = inhibition
CSCCC1Nc2ccc(S(=O)(=O)N3CCOCC3)cc2NC1=O (stereo not given)	inconclusive: 31.6 µM [inhibitor, single point]	
CO/N=C/C=C1/N(C)c2ccccc2C1(C)C	inactive	
COc1cccc(C(=O)CSc2nnc(COc3cccc4cccnc34)o2)c1	inconclusive: 2.51 µM [inhibitor, full curve]	
COc1ccc(N2CCN(c3ccc([N+](=O)[O-])nc3)CC2)cc1	active: 1.41 µM	
Cc1ccccc1NC(=O)Cn1c(=O)n(CCC(=O)NCc2ccc3c(c2)OCO3)c(=O)c2sccc21	inactive	
CC(=O)N1CCc2cc(CNS(=O)(=O)c3ccc(C(C)(C)C)cc3)ccc21	inactive	
COc1ccc(/C=C/C(=O)Nc2ccccc2)cc1OC	inactive	
Fc1ccc(-c2ccnc(=S)[nH]2)cc1	inconclusive: 17.8 µM [inhibitor, partial curve]	
CC1C=CCCOC1c1ccccc1 (stereo not given)		inactive: -6.25% [at 11.5 µM]
COc1ccc(-c2cc(C(=O)N3CCCc4ccccc43)no2)cc1OC	inconclusive: 14.1 µM [inhibitor, partial curve]	
Cc1cccc(S(=O)(=O)c2c(N)n(/N=C/c3ccco3)c3nc4ccccc4nc23)c1	inconclusive: 15.8 µM [inhibitor, single point]	
CC(C)(C)N(Cc1ccccc1)C(=O)COC(=O)Cn1cnc2ccccc2c1=O	inactive	
COc1ccc(N(C(C)C(=O)N/N=C/c2ccc(OCC(C)C)cc2)S(C)(=O)=O)cc1 (stereo not given)	inconclusive: 14.1 µM [inhibitor, single point]	
Cc1nn(C)cc1C1C2=C(CC(C)(C)CC2=O)N(c2ccccc2)C2=C1C(=O)CC(C)(C)C2	inactive	
C=CCSC(=C(C#N)C#N)c1cc2c([nH]1)CCCC2	active: 10 µM	
O=C(COc1cccc(Cl)c1)N1CCC(c2nc3ccccc3s2)CC1	inconclusive: 31.6 µM [inhibitor, single point]	
CC1(OC(=O)CCc2ccccc2)C(=O)C=C2C=C(c3ccc(C#N)cc3)N(CC3CC3)C=C2C1=O (stereo not given)	inconclusive: 17.8 µM [inhibitor, single point]	
Cc1nc2sc(C(=O)c3ccccc3)c(N)c2c2c1CCCC2	inconclusive: 15.8 µM [inhibitor, partial curve]	
COc1cc(OC)c(NC(=O)Nc2sc3nc4n(c(=O)c3c2C)CCC(C)CC4)cc1Cl (stereo not given)	inconclusive: 14.1 µM [inhibitor, partial curve]	
O=C(c1ccco1)N1CCN(c2ncnc3c2cnn3-c2ccccc2)CC1	inconclusive: 2.24 µM [inhibitor, partial curve]	
O=C(Nc1ccc(N2CCOCC2)cc1)C1CCN(S(=O)(=O)c2ccc3c(c2)OCCO3)CC1	inactive	
CC(NC(=O)NC1CCCCC1)C(c1cccs1)N1CCN(Cc2ccccc2)CC1 (stereo not given)	inconclusive: 28.2 µM [inhibitor, single point]	
Cc1ccc(C)c(OCC(O)CN2CCN(CCN3C(=O)c4cccc5cccc(c45)C3=O)CC2)c1 (stereo not given)	inconclusive: 17.8 µM [inhibitor, partial curve]	
CCn1cc(C(C)NC(=O)COc2ccc(Cl)cc2C)c(C)n1 (stereo not given)	inactive	

SMILES	Potency	activity, negative = inhibition
O=C(Nc1ccc2c(c1)OCCO2)NC1(C(F)(F)F)Oc2ccccc2O1	inconclusive: 35.5 µM [inhibitor, partial curve]	
Cc1c2ccccc2cc[n+]1CCCS(=O)(=O)[O-]	inactive	
O=C(CSc1cccs1)Nc1ccc2ccccc2c1	inactive	
COC(=O)C1=C(C)NC(=O)/C1=C\N(C)C	inconclusive: 17.8 µM [inhibitor, partial curve]	
Cc1cc2c(NC(=O)Nc3ccc(F)cc3)cccc2nn1	inconclusive: 14.1 µM [inhibitor, single point]	
CCOC(=O)/C(=C\c1cccc(O)c1)c1nc2sc(C)c(C)c2c(=O)[nH]1	active: 20 µM	
O=C(CC(Nc1cccc(Cl)c1Cl)C(=O)O)c1ccccc1 (stereo not given)	inconclusive: 11.2 µM [inhibitor, partial curve]	
Cc1ccc2[nH]c(C(=O)O)c(NC(=O)CN3CCN(c4cccc(C)c4C)CC3)c2c1	inconclusive: 22.4 µM [inhibitor, partial curve]	
Nc1ccc(C(=O)O)c(O)c1 (tested in a mixture with another compound)	inconclusive: 14.1 µM [inhibitor, partial curve]	
N#Cc1c[nH]n2c(NC3CCCC3)c(-c3ccc(Br)cc3)nc12	inconclusive: 12.6 µM [inhibitor, partial curve]	
Cc1ccc(-c2ccc(SCC(=O)Nc3ccc4c(c3)OCCO4)nn2)cc1	inconclusive: 5.01 µM [inhibitor, full curve]	
CNc1ccccc1C(C)(C)c1cc(-c2cccc(OC)c2)no1	inconclusive: 28.2 µM [inhibitor, partial curve]	
Cc1ccc(Cl)cc1N1CCN(C(=O)c2cnn(-c3ccc(Cl)cc3)c2C2CCNCC2)CC1	inconclusive: 31.6 µM [inhibitor, single point]	
CCOc1ccc2nc(SCC(=O)Nc3ccc4c(c3)OCCO4)[nH]c2c1	inconclusive: 14.1 µM [inhibitor, partial curve]	
O=C(COC(=O)CC1CCCC1)Nc1cc2c(cc1Cl)C(=O)c1ccccc1C2=O	inconclusive: 28.2 µM [inhibitor, partial curve]	
COc1ccc(NC(=O)c2cc(S(=O)(=O)Nc3ccc(OC)cc3)cs2)cc1	inactive	
CCOc1ccc2nc(NCCNC(=O)C(C)C)c(C)cc2c1	inconclusive: 3.98 µM [inhibitor, partial curve]	
O=C(/C=C/c1ccccn1)c1cc(Cl)cc(Cl)c1O	inconclusive: 14.1 µM [inhibitor, partial curve]	
C[C@@H](NC(=O)c1nc[nH]c1C(=O)N[C@@H](CCCCNC(=O)OC(C)(C)C)C(=O)OC(C)(C)C)c1ccccc1	inconclusive: 0.355 µM [activator, single point]	
Cc1cccc(C(=O)Nc2sc3c(c2C(=O)O)CCC3)c1	inconclusive: 17.8 µM [inhibitor, partial curve]	
Oc1ccc(/C=N/Nc2ccccc2)cc1	inconclusive: 15.8 µM [inhibitor, partial curve]	
O=S(=O)(Nc1ccc(-c2ccc(N3CCCC3)nn2)cc1)c1ccccc1Cl	inactive	
O=C(COc1ccc(Br)cc1CNCCc1ccccc1)NCc1ccccc1	inactive	
CNC(=S)Nc1cc(C(=O)N2CCCC2)ccc1N1CCCC1	inconclusive: 0.0251 µM [activator, full curve, poor fit]	

SMILES	Potency	activity, negative = inhibition
Cc1ccc(C(C)C)c(OCCN2C(=O)NC(C)(C)C2=O)c1	inactive	
CCc1ccc(OCC(=O)N/N=C2\CC(=O)c3ccccc32)cc1	inconclusive: 14.1 µM [inhibitor, partial curve]	
O=S1(=O)CC(O)C(N=Nc2c(O)n(Cc3ccccc3)c3ccccc23)C1 (stereo not given)	inactive	
COC(=O)c1ccccc1C(=O)c1ccc2c(c1)NC(=O)CO2	inactive	
Fc1ccc(C2NCCn3cccc32)cc1 (stereo not given)	inconclusive: 39.8 µM [inhibitor, single point]	
CC(=O)c1sc(N/N=C/c2cccc(O)c2)nc1C	inconclusive: 10 µM [inhibitor, partial curve]	
CN(C)c1ccc(NC(=O)/C=C/c2ccccc2Cl)cc1	inconclusive: 3.16 µM [inhibitor, full curve]	
CC(=O)C1=C(c2ccc(C)cc2)N(C(C)=O)n2c(nnc2-c2ccccc2)S1	inconclusive: 15.8 µM [inhibitor, partial curve]	
O=C1/C(=C/c2ccc([N+](=O)[O-])cc2)CCc2ccccc21	inconclusive: 1.26 µM [inhibitor, partial curve]	
COc1ccc(Cn2c(C)c(C)c(C#N)c2NC(=O)Nc2ccc(Cl)cc2)cc1	inconclusive: 31.6 µM [inhibitor, single point]	
COc1cccc(C(=O)Nc2ccc(-c3nc4ccc(C)cc4s3)cc2)c1OC	inconclusive: 0.631 µM [inhibitor, full curve]	
COc1cn(CC(=O)Nc2ccc(C)cc2C)c(CN2CCCCC2)cc1=O	inactive	
O=C(CSc1nc2c([nH]c3ccccc32)c(=O)n1-c1cccc(C(F)(F)F)c1)N1CCCC1	inactive	
FC(F)(F)c1cccc(NC(=S)N(CCCN2CCCC2)Cc2cccn2Cc2ccc(Cl)cc2)c1	inconclusive: 12.6 µM [inhibitor, partial curve]	
COc1cnc(SCc2ccc(Cl)cc2)nc1Cl	inconclusive: 22.4 µM [inhibitor, single point]	
CSCc1cc(N(C)C)nc(SCc2ccc(Cl)c(Cl)c2)n1	inconclusive: 20 µM [inhibitor, partial curve]	
CC(=O)c1ccc(NC(=O)/C=C/c2ccc(C)o2)cc1	inconclusive: 1.12 µM [inhibitor, full curve]	
COc1ccc(CN2CCC(C(=O)N(C)CCc3ccc(OC)c(OC)c3)CC2)c(OC)c1	inactive	
CCOC(=O)N1CCC(Nc2c(Nc3cccc(CC)c3)c(=O)c2=O)CC1	inconclusive: 31.6 µM [inhibitor, single point]	
CCOCC(=O)N1CCN(c2ccccc2OC)CC1	inactive	
Cc1cc(C)c([N+](=O)[O-])cc1-c1ccc(/C=N/c2c(-c3ccco3)nc3ccccn23)o1	active: 5.01 µM	
COC(=O)c1cc2n3ccccc3c(C)c(-c3ccccc3)c-2c1C(=O)OC	inconclusive: 14.1 µM [inhibitor, partial curve]	
